Here are results for 20 molecules from publication PMC9911399, “Two distinct binding modes provide the RNA-binding protein RbFox with extraordinary sequence specificity”.

First the molecules themselves.
B1: UGUACAC (DNA:RNA)
RNA: GGGAGACCGGAAUUCAGAUUGUCCUGUACACUUAAAUCCCGUCGUAGCCACCA
DNA 1: CAATCTGAATTCCGGTCTCCC
DNA 2: TGGTGGCTACGACGGGATT
B2: UGGUUCG (DNA:RNA)
RNA: B1 RNA with U27G, A28U, C29U, A30C, C31G
DNA 1: CAATCTGAATTCCGGTCTCCC
DNA 2: TGGTGGCTACGACGGGATT
B3: CCGAUGC (DNA:RNA)
RNA: B1 RNA with U25C, G26C, U27G, C29U, A30G
DNA 1: CAATCTGAATTCCGGTCTCCC
DNA 2: TGGTGGCTACGACGGGATT
B4: AAAGCUU (DNA:RNA)
RNA: B1 RNA with U25A, G26A, U27A, A28G, A30U, C31U
DNA 1: CAATCTGAATTCCGGTCTCCC
DNA 2: TGGTGGCTACGACGGGATT
B5: UAGGCAA (DNA:RNA)
RNA: B1 RNA with G26A, U27G, A28G, C31A
DNA 1: CAATCTGAATTCCGGTCTCCC
DNA 2: TGGTGGCTACGACGGGATT
B6: CCCGCGA (DNA:RNA)
RNA: B1 RNA with U25C, G26C, U27C, A28G, A30G, C31A
DNA 1: CAATCTGAATTCCGGTCTCCC
DNA 2: TGGTGGCTACGACGGGATT
B7: GCAGGUA (DNA:RNA)
RNA: GGGAGACCGGAAUUCAGAUUGUCCGCAGGUAUUAAAUCCCGUCGUAGCCACCA
DNA 1: CAATCTGAATTCCGGTCTCCC
DNA 2: TGGTGGCTACGACGGGATT
B8: ACGGGAC (DNA:RNA)
RNA: B7 RNA with G25A, A27G, U30A, A31C
DNA 1: CAATCTGAATTCCGGTCTCCC
DNA 2: TGGTGGCTACGACGGGATT
B9: CAGCAUU (DNA:RNA)
RNA: B7 RNA with G25C, C26A, A27G, G28C, G29A, A31U
DNA 1: CAATCTGAATTCCGGTCTCCC
DNA 2: TGGTGGCTACGACGGGATT
B10: ACUUUUC (DNA:RNA)
RNA: B7 RNA with G25A, A27U, G28U, G29U, A31C
DNA 1: CAATCTGAATTCCGGTCTCCC
DNA 2: TGGTGGCTACGACGGGATT
B11: UCCGGAG (DNA:RNA)
RNA: B7 RNA with G25U, A27C, U30A, A31G
DNA 1: CAATCTGAATTCCGGTCTCCC
DNA 2: TGGTGGCTACGACGGGATT
B12: GAACCGC (DNA:RNA)
RNA: B7 RNA with C26A, G28C, G29C, U30G, A31C
DNA 1: CAATCTGAATTCCGGTCTCCC
DNA 2: TGGTGGCTACGACGGGATT
B13: AAAAUCG (DNA:RNA)
RNA: B7 RNA with G25A, C26A, G28A, G29U, U30C, A31G
DNA 1: CAATCTGAATTCCGGTCTCCC
DNA 2: TGGTGGCTACGACGGGATT
B14: GAGCGGG (DNA:RNA)
RNA: B7 RNA with C26A, A27G, G28C, U30G, A31G
DNA 1: CAATCTGAATTCCGGTCTCCC
DNA 2: TGGTGGCTACGACGGGATT
B15: UGUCAUC (DNA:RNA)
RNA: B1 RNA with A28C, C29A, A30U
DNA 1: CAATCTGAATTCCGGTCTCCC
DNA 2: TGGTGGCTACGACGGGATT
B16: GAAACGA (DNA:RNA)
RNA: B7 RNA with C26A, G28A, G29C, U30G
DNA 1: CAATCTGAATTCCGGTCTCCC
DNA 2: TGGTGGCTACGACGGGATT
B17: GGCCGUG (DNA:RNA)
RNA: B7 RNA with C26G, A27C, G28C, A31G
DNA 1: CAATCTGAATTCCGGTCTCCC
DNA 2: TGGTGGCTACGACGGGATT
B18: GAGUUGC (DNA:RNA)
RNA: B7 RNA with C26A, A27G, G28U, G29U, U30G, A31C
DNA 1: CAATCTGAATTCCGGTCTCCC
DNA 2: TGGTGGCTACGACGGGATT
B19: ACAGGAA (DNA:RNA)
RNA: B7 RNA with G25A, U30A
DNA 1: CAATCTGAATTCCGGTCTCCC
DNA 2: TGGTGGCTACGACGGGATT
B20: UCACCCC (DNA:RNA)
RNA: B1 RNA with G26C, U27A, A28C, A30C
DNA 1: CAATCTGAATTCCGGTCTCCC
DNA 2: TGGTGGCTACGACGGGATT

Numbering of substitutions follows the chain as printed; changes in the protein carry UniProt numbers. This is one part of the list.

The assay deals with T1, RBFOX1 RRM RbFoxmut (Fox-RRM*) (Homo sapiens, UniProt Q9NWB1 109-208, R118D;E147R;N151S;E152T).
T1 sequence: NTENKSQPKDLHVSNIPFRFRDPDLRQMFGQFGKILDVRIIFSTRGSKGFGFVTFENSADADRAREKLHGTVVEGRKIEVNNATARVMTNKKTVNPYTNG
Description: EMSA; HiTS-Eq, 1 nM pool, 10 min; buffer printed only for the single-RNA assays: 10 mM Tris pH 7.5, 150 mM NaCl, 3.4 mM EDTA, 0.001% NP-40, 30 C. The settings on record: tags: His6 N-terminal (pET28a); label: 5' 32P. The method, boiled down:
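Relative association constants, normalised to the cognate motif, were derived by comparing read counts of each RNA species with those of the control reaction. The RNA sequenced was the free fraction, separated by 8% native PAGE after a 10 min equilibration in 50 µL of 1 nM 5′-radiolabelled RNA (7 randomized nucleotides) with increasing concentrations of purified wild-type or mutant RbFox RRM.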
For B1, the binding signal is 0.0562 KA relative to UGCAUGU. For B2, the binding signal is 0.492 KA relative to UGCAUGU. Take B3: the binding signal is 0.1 KA relative to UGCAUGU. Then B4, with 0.0811 KA relative to UGCAUGU. Then B5, with 0.0678 KA relative to UGCAUGU; and B6, with 0.0823 KA relative to UGCAUGU. Then B7, with 0.139 KA relative to UGCAUGU; and B8, with 0.107 KA relative to UGCAUGU; and B9, with 0.107 KA relative to UGCAUGU. With B10, the binding signal is 0.0615 KA relative to UGCAUGU.

As to B11, the binding signal was 0.0575 KA relative to UGCAUGU. As to B12, the binding signal was 0.103 KA relative to UGCAUGU. As to B13, the binding signal is 0.0573 KA relative to UGCAUGU. In the case of B14, the binding signal is 0.0902 KA relative to UGCAUGU.

B15: the binding signal was 0.183 KA relative to UGCAUGU.

Take B16: the binding signal was 0.0502 KA relative to UGCAUGU. Then B17, with 0.18 KA relative to UGCAUGU; and B18, with 0.109 KA relative to UGCAUGU. Turning to B19, the binding signal was 0.129 KA relative to UGCAUGU. Then B20, with 0.0883 KA relative to UGCAUGU.
